The whole screen tested about 52,000 compounds, of which about 1,700 (3.3%) were called active. No stated cut-off is given here; in the data, active means survival mostly below about 52% (no sharp cut-off); inactive means mostly above about 56%. This is one part of the list.
The compounds below were run on Wild type (assay: growth inhibition of S. aureus wild type versus tarO mutant, primary screen, teichoic acid synthesis inhibitors, RN4220, OD600 (AID 463173)). Details: S. aureus RN4220 wild type/DeltatarO growth, OD600, 18 h, stronger effect = lower value, screened at 18.75 µg/mL (by protocol).

Row | SMILES | survival
1 | O=S(=O)(Nc1cccc(-c2ccc(N3CCOCC3)nn2)c1)c1ccc(F)c(C(F)(F)F)c1 | inactive: 89%
2 | COc1ccc(CCNC(=O)c2ccc3c(c2)CCN3S(=O)(=O)c2ccc(C)cc2)cc1OC | inactive: 80%
3 | CCOc1ccc(C(C(=O)NC2CCCC2)N(Cc2ccco2)C(=O)Cn2nnc3ccccc32)cc1OC (stereo unspecified) | inactive: 103%
4 | O=C(O)C1C2C=CC(C2)C1C(=O)NCCN1CCOCC1 (stereo unspecified) | inactive: 102%
5 | O=C(COc1ccccc1Cl)Nc1ccc2nc(SCC(=O)N3CCOCC3)sc2c1 | inactive: 88%
6 | CCSc1nc2sc3c(c2c(=O)n1-c1ccc(C)c(Cl)c1)CCN(C(C)=O)C3 | inactive: 70%
7 | O=S(=O)(c1ccc2nc(Nc3ccc(Br)cc3F)ccc2c1)N1CCCCC1 | inactive: 81%
8 | COc1ccc(CN(CCN(C)C)Cc2ccccc2)c(OC)c1 | inactive: 114%
9 | O=C(CCNS(=O)(=O)c1ccc2c(c1)CCCC(=O)N2)NCc1ccc(Cl)cc1 | inactive: 72%
10 | Cc1cc(Cl)ccc1OCCSc1nnc(-c2cccs2)o1 | inactive: 67%
11 | Cc1ccccc1Cn1cc(S(=O)(=O)c2ccc(F)cc2)c(=O)c2cc3c(cc21)OCO3 | inactive: 85%
12 | Cc1cc(=O)n(Cc2ccc(Br)cc2F)c2c1c(C)nn2-c1ccccc1 | inactive: 75%
13 | Cc1ccc(NC(=O)Cn2c(=O)n(CCCCC(=O)NCCc3ccccc3)c(=O)c3ccccc32)cc1 | inactive: 97%
14 | COC(=O)c1sccc1S(=O)(=O)N(CC(=O)Nc1cc(F)ccc1F)c1ccc(C)c(C)c1 | inactive: 133%
15 | CCc1ccc(-c2[nH]nc3nc(-c4cc(OC)ccc4OC)cc(C(=O)O)c23)cc1 | inactive: 100%
16 | CCc1nccn1S(=O)(=O)c1cc(Br)ccc1Br | inactive: 69%
17 | COc1ccc(C)cc1NC(=O)CN(C)S(=O)(=O)c1ccc2[nH]c(=O)oc2c1 | inactive: 77%
18 | COC(=O)c1ccc2c(c1)N(CC(=O)Nc1ccc(C)cc1Cl)C(=O)c1ccccc1S2 | inactive: 81%
19 | CCn1c(C)c(C)c2cc(C(=O)NCCc3cc(OC)ccc3OC)ccc21 | inactive: 68%

Row | SMILES | survival
20 | O=C(Nc1cccc(C(F)(F)F)c1)C1CCCN(S(=O)(=O)c2cccc3nonc23)C1 (stereo unspecified) | inactive: 95%
21 | Cc1oc2ncn(CC(C)C)c(=O)c2c1C(=O)NCCCN(C)Cc1ccccc1 | inactive: 76%
22 | Cc1cc2oc(C(=O)Nc3ccc(S(=O)(=O)N(C)c4ccccc4)cc3)cc(=O)c2cc1C | inactive: 87%
23 | Cc1oc2c(C)c3oc(=O)c(CCC(=O)N4CCCCC4)c(C)c3cc2c1C | inactive: 99%
24 | CC(C)(C)c1ccc(C(=O)Nc2nnc3n2CCS3)cc1 | inactive: 69%
25 | CCOC(=O)c1c(SCC(=O)Nc2cccc(C)c2C)nc(=O)[nH]c1C | inactive: 63%
26 | COc1cc(-c2nnc(SCCOc3ccccc3)o2)cc(OC)c1OC | inactive: 84%
27 | CCOC(=O)Cn1c(=O)oc2cc(S(=O)(=O)Nc3ccccc3F)ccc21 | inactive: 65%
28 | CC(=O)N1CCc2c(sc(NC(=O)CSc3ccc(F)cc3)c2-c2nc3ccccc3s2)C1 | inactive: 120%
29 | COc1ccc(-c2noc(-c3ccc(NCCc4ccccc4)c([N+](=O)[O-])c3)n2)cc1 | inactive: 84%
30 | COc1ccc(S(=O)(=O)N(CC(=O)Nc2ccc3c(c2)OCO3)c2ccccc2)cc1 | inactive: 117%
31 | Cc1noc(C)c1C(=O)N(c1ccccc1)C(C(=O)NC1CCCC1)c1ccc(F)cc1 (stereo unspecified) | inactive: 107%
32 | O=C(Cn1cc(S(=O)(=O)Cc2ccccc2Cl)c2ccccc21)Nc1ccc(F)cc1F | inactive: 88%
33 | NC(Cc1ccccc1)C(O)(c1ccccc1)c1ccccc1 (stereo unspecified) | inactive: 110%
34 | COc1ccccc1N1CCN(C(=O)COc2ccccc2C#N)CC1 | inactive: 83%
35 | CCOc1ccc(CNC(=O)c2ccc3c(c2)N(Cc2ccccc2)CCS3)cc1 | inactive: 95%
36 | O=C(Cn1ncc2c(Cl)cccc21)NCc1cccc(F)c1 | inactive: 117%
37 | COc1ccc2[nH]cc(NC(=O)N3CCN(C(=O)OC(C)(C)C)CC3)c(=O)c2c1 | inactive: 101%
38 | CCOc1ccc(S(=O)(=O)N2CCC(n3c(C)nc4cccnc43)CC2)cc1 | inactive: 89%

Row | SMILES | survival
39 | CC(=O)Nc1ccc2nc(SCCOc3ccccc3Cl)sc2c1 | active: 9%
40 | CCOC(=O)c1c(C)[nH]c(C)c1S(=O)(=O)N(C)CC(=O)Nc1ccc(C)c(F)c1 | inactive: 83%
41 | CCCCN(c1ccccc1)c1ncnc2c1cnn2-c1cccc(C)c1 | inactive: 68%
42 | CN(C(=O)CSc1nc2ccccc2n1CC(=O)N(C)C1CCCCC1)c1ccc(F)cc1 | inactive: 120%
43 | COC(=O)c1cc2sccc2n1Cc1nc(-c2ccc(C)cc2)oc1C | inactive: 28%
44 | Cc1cc(C)c(NC(=O)C2CCCN(C(=O)c3cnn(-c4ccccc4)c3-n3cccc3)C2)c(C)c1 (stereo unspecified) | inactive: 77%
45 | CCc1ccccc1NC(=O)c1ccc2c(c1)c(C)c(C)n2Cc1ccccc1 | inactive: 68%
46 | CCc1ccc(S(=O)(=O)c2cn(Cc3ccc(OC)cc3)c3cc(OC)c(OC)cc3c2=O)cc1 | inactive: 84%
47 | O=C(COc1ccc(Br)cc1)Nc1ccc(C(=O)OC2CCCCC2)cc1 | inactive: 81%
48 | CCOc1ccc(NC(=O)Cn2c(=O)n(-c3ccccc3)c(=O)c3c4c(sc32)CCCC4)cc1 | inactive: 102%
49 | COc1ccc(NC(=O)CCc2c(C)nc3cc(-c4cccc(F)c4)nn3c2C)cc1Cl | inactive: 131%
50 | O=C(Nc1cccnc1)C(Cc1ccccc1)N1C(=O)c2ccccc2C1=O (stereo unspecified) | inactive: 108%
51 | CCc1nnc2c3ccccc3nc(N3CCN(c4cc(Cl)ccc4C)CC3)n12 | inactive: 126%
52 | CCc1nc2nc(C)cc(Nc3ccc(F)c(Cl)c3)n2n1 | inactive: 71%
53 | Cc1ccc(CN2CCC(CNC(=O)Nc3cccc(C)c3C)C2)cc1 (stereo unspecified) | inactive: 119%
54 | O=C1CC(c2ccc(Br)cc2)c2c(ccc3ccccc23)N1 (stereo unspecified) | inactive: 39%
55 | Cc1c(Cl)cccc1NC(=O)Cn1c(=O)n(Cc2ccco2)c(=O)c2oc3ccccc3c21 | inactive: 84%
56 | COC(=O)c1c(Oc2ccc(Br)cc2)nnc(-c2ccccc2)c1-c1ccccc1 | inactive: 100%

Source: PubChem BioAssay AID463173 (ICCB-Longwood Screening Facility, Harvard Medical School, 2010)
